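Growth conditions: 96-well plates. Treatment: test compound, 48 hours, 5 concentrations. Analysis: linear interpolation between bracketing concentrations; unreached endpoints set to highest concentration. GI50 = concentration required for 50% inhibition of growth. Definition used: TGI = concentration required for complete inhibition of growth.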 Where only a bound is given, the exact number is not on record here.

For the assay, the system named is NCI-H322M lung. Description: inhibition of tumour cell growth, NCI panel, 48 h.
With `COc1cccc(NC(=O)c2ccc(NC(=O)CCl)s2)c1`, the GI50 is more than 100 µM and the TGI was more than 100 µM.

Regarding `COC(=O)C[C@](O)(CCC(C)C)C(=O)O[C@@H]1C(OC)=C[C@]23CCCN2CCc2cc4c(cc2[C@H]13)OCO4`, the GI50 is 0.278 µM and the TGI was determined as 1.24 µM.

As to `C/C(=N/O)c1ccc(NC(=O)CSc2nnc(-c3ccc4nc(-c5ccc(Cl)cc5)[nH]c4c3)o2)cc1`, the GI50 was 12.7 µM and the TGI stood at 25.8 µM.

For the compound `Clc1cccc(-c2ccc(OCCCN3CCN(c4ccncc4)CC3)cc2)c1`, the GI50 is 2.13 µM and the TGI was 5.89 µM.

Source of the values: PubChem BioAssay (NCI).
